According to article PMC4336329 (PLoS ONE, 2015):
The whole screen tested about 310,000 compounds, of which about 14,000 (4.5%) showed an effect of 50% or more. The effect is printed as a negative number. Some of the results follow.
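Further: peak tail current of the secondary pulse compared with the same well before compound.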

What follows are compounds tested against human ether-à-go-go-related gene (hERG) potassium channel (human, UniProt Q12809) (assay: primary screen, population patch clamp on CHO cells stably expressing hERG).
Chain of human ether-à-go-go-related gene (hERG) potassium channel (Q12809 whole entry, looked up): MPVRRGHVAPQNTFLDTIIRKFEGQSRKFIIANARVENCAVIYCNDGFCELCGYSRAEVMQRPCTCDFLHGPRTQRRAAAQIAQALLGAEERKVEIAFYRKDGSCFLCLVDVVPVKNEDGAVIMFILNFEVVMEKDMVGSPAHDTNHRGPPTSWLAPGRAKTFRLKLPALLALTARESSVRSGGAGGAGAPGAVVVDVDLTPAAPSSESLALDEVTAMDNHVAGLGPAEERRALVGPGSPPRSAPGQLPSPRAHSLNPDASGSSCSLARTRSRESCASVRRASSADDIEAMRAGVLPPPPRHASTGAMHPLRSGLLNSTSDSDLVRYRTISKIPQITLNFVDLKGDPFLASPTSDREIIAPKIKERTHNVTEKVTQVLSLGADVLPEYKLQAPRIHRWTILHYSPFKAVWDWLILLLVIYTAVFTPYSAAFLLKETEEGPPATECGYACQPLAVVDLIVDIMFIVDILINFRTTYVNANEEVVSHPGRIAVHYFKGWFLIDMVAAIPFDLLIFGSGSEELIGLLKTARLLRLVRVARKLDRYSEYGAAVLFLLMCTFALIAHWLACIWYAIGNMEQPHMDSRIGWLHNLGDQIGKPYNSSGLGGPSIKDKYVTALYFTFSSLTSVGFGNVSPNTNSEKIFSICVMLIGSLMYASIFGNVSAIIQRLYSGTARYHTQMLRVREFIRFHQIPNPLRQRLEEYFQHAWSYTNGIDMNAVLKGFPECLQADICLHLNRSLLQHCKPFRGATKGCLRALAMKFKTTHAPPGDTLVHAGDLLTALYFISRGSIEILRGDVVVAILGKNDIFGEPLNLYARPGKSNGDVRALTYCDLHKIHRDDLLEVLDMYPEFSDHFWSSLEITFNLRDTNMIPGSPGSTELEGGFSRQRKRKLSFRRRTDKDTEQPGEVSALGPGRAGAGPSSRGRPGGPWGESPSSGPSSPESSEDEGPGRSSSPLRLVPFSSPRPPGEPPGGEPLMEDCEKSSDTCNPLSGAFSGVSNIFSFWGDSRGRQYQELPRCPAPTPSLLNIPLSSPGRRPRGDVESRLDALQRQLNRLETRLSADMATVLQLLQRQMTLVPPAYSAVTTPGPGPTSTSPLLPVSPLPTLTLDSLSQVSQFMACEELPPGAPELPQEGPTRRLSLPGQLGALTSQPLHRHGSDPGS
For `CCc1nc(N=Nc2c(O)[nH]c3ccccc23)c2c3c(sc2n1)CCC3`, the “hERG current change (%, negative = inhibition) at 10uM” value was 13.7%. `COc1ccccc1C1(O)CCN(C(=O)c2cccs2)CC1` was tested, and the “hERG current change (%, negative = inhibition) at 10uM” value was 1.95%. For `COc1ccc(NC(=O)CCS(=O)(=O)c2ccccc2Cl)cc1S(=O)(=O)Nc1ccc(Cl)cc1`, the “hERG current change (%, negative = inhibition) at 10uM” value was 8.4%. With `CC(C)OC(=O)C(CC(=O)O)NCc1ccccc1` (stereo not shown) the “hERG current change (%, negative = inhibition) at 10uM” value was -3.47%. With `CCOc1ccc2nc(N3CCCC(C(=O)NCCCN4CC(C)CC(C)C4)C3)sc2c1` (stereo not shown) the “hERG current change (%, negative = inhibition) at 10uM” value was -48.8%. For `CC(C)Nc1c([N+](=O)[O-])c(=O)oc2ccccc12`, the “hERG current change (%, negative = inhibition) at 10uM” value was 10.1%. In the case of `COc1ccc(Nc2ncnc3scc(-c4ccc(OC)cc4)c23)cc1`, the “hERG current change (%, negative = inhibition) at 10uM” value is reported as -3.22%. With `O=C1CCC2c3ccc4ccccc4c3CCN12` (stereo not shown) the “hERG current change (%, negative = inhibition) at 10uM” value was -7.9%. `FC(F)C(F)(F)c1cc(-c2ccccc2)n[nH]1` was tested, and the “hERG current change (%, negative = inhibition) at 10uM” value was 3.21%. For `CCCNC(=O)C1CC(=O)N(c2ccc(OCC)cc2)C1` (stereo not shown), the “hERG current change (%, negative = inhibition) at 10uM” value was -10.7%. In the case of `CN(c1ccc(Cl)cc1)c1cc(=O)n(C)c2ccccc12`, the “hERG current change (%, negative = inhibition) at 10uM” value is reported as -51.8%. In the case of `Cc1ccc2oc(C(=O)N(C)Cc3cnccn3)c(C)c2c1`, the “hERG current change (%, negative = inhibition) at 10uM” value is reported as 2.42%. `CN(C)CCNC=C(C(=O)Nc1ccc(Cl)cc1Cl)C(=O)Nc1ccc(Cl)cc1Cl` was tested, and the “hERG current change (%, negative = inhibition) at 10uM” value was 18.8%. With `COC(=O)c1cc(C(=O)OC)n(Cc2ccc(C)cc2)c1C` the “hERG current change (%, negative = inhibition) at 10uM” value was -44.2%. For `COc1cc(CC(=O)N2CCc3ccccc32)cc(OC)c1OC`, the “hERG current change (%, negative = inhibition) at 10uM” value was 3.2%. `Nn1c(COc2ccccc2)nnc1SCC(=O)O` was tested, and the “hERG current change (%, negative = inhibition) at 10uM” value was 1.79%. With `O=C1CC(N2CCN(c3nc4ccccc4s3)CC2)C(=O)N1Cc1cccs1` (stereo not shown) the “hERG current change (%, negative = inhibition) at 10uM” value was -62.3%. `c1ccc(N2CCN(c3ccccc3)C2c2ccncc2)cc1` was tested, and the “hERG current change (%, negative = inhibition) at 10uM” value was -9.04%. In the case of `CCOc1cc(/C=C(\C#N)C(=O)NCc2cccnc2)ccc1O`, the “hERG current change (%, negative = inhibition) at 10uM” value is reported as -8.66%. With `COc1ccccc1CNC(=O)C1CCN(S(=O)(=O)c2ccc(N3CCCC3=O)cc2)CC1` the “hERG current change (%, negative = inhibition) at 10uM” value was -4.97%. In the case of `COc1ccc(C(CNS(=O)(=O)c2ccc(F)cc2)N2CCN(C)CC2)cc1` (stereo not shown), the “hERG current change (%, negative = inhibition) at 10uM” value is reported as -32.5%. `CCOC(=O)/C(C(C)=O)=C1\OC(=O)c2ccccc21` was tested, and the “hERG current change (%, negative = inhibition) at 10uM” value was 13.2%. For `CCCSc1nc2c(c(=O)n1CC)SC(C)C2` (stereo not shown), the “hERG current change (%, negative = inhibition) at 10uM” value was -17.5%. `CCOc1ccc(CCNC(=O)CSc2nnnn2C)cc1OCC` was tested, and the “hERG current change (%, negative = inhibition) at 10uM” value was 3.57%. For `CCn1c(=NC(=O)CS(=O)(=O)c2ccccc2)sc2cccc(OC)c21`, the “hERG current change (%, negative = inhibition) at 10uM” value was -16.9%. In the case of `CCN(CC)CCCNC(=O)C(C)n1c2ccccc2c2nc(=O)cc(C)n21` (stereo not shown), the “hERG current change (%, negative = inhibition) at 10uM” value is reported as 7.23%. In the case of `CCCC1Cc2c(sc3nc(SC)nc(N)c23)CO1` (stereo not shown), the “hERG current change (%, negative = inhibition) at 10uM” value is reported as 4.16%. With `CCOC(=O)c1cccc(-c2ccc(C=O)o2)c1` the “hERG current change (%, negative = inhibition) at 10uM” value was -0.133%. With `CNC(=O)CN(C)S(=O)(=O)c1ccc(OC)c(Cl)c1` the “hERG current change (%, negative = inhibition) at 10uM” value was 6.65%. `CC(C)CNC(=O)CO/N=C/c1ccccc1Cl` was tested, and the “hERG current change (%, negative = inhibition) at 10uM” value was 1.45%. With `CC(=O)C1=C(O)C(=O)N(c2nccs2)C1c1ccccc1` (stereo not shown) the “hERG current change (%, negative = inhibition) at 10uM” value was 2.24%. `CCCOc1ccc(/C=C/c2[nH]c(=O)[nH]c(=O)c2[N+](=O)[O-])cc1OCC` was tested, and the “hERG current change (%, negative = inhibition) at 10uM” value was -1.51%. With `CCN(CC)S(=O)(=O)c1cccc(-c2cn3cccnc3n2)c1` the “hERG current change (%, negative = inhibition) at 10uM” value was -26.1%. With `CCN(CC)S(=O)(=O)c1cc(C(=O)O)ccc1Cl` the “hERG current change (%, negative = inhibition) at 10uM” value was 11%. `O=C1CCC(=O)N1c1ccc(S(=O)(=O)Nc2ccc(Br)cc2)cc1` was tested, and the “hERG current change (%, negative = inhibition) at 10uM” value was 10.2%. In the case of `COc1ccc(S(=O)(=O)N2N=C(c3cccc(NS(C)(=O)=O)c3)CC2c2ccco2)cc1` (stereo not shown), the “hERG current change (%, negative = inhibition) at 10uM” value is reported as -3.61%. `Cc1ccc(N(CC(=O)N2CCOCC2)S(C)(=O)=O)cc1Cl` was tested, and the “hERG current change (%, negative = inhibition) at 10uM” value was -1.3%. In the case of `O=C(N/N=C/c1ccc(O)c2ccccc12)c1cccnc1`, the “hERG current change (%, negative = inhibition) at 10uM” value is reported as 20.9%. In the case of `COC(=O)c1c(-c2ccccc2)csc1NC1=NS(=O)(=O)c2ccccc21`, the “hERG current change (%, negative = inhibition) at 10uM” value is reported as 20%. In the case of `Cc1noc(C)c1COc1cccc(C(=O)Nc2ccc(OCc3ccccc3)cc2)c1`, the “hERG current change (%, negative = inhibition) at 10uM” value is reported as 6.49%. `CC(=O)NC(Cc1cc(C)ccc1C)C(=O)N1CCN(C(=O)c2ccccc2Br)CC1` (stereo not shown) was tested, and the “hERG current change (%, negative = inhibition) at 10uM” value was -0.358%. In the case of `O=C(O)c1nc(N2CCCC2)ncc1Cl`, the “hERG current change (%, negative = inhibition) at 10uM” value is reported as 16.5%. In the case of `COc1ccccc1N1CCN(C(=O)c2ccc3[nH]c4c(c3c2)CC(C)CC4)CC1` (stereo not shown), the “hERG current change (%, negative = inhibition) at 10uM” value is reported as 11%. In the case of `O=C(/C=C/Nc1ccc(Cc2ccc(N/C=C/C(=O)C(F)(F)F)cc2)cc1)C(F)(F)F`, the “hERG current change (%, negative = inhibition) at 10uM” value is reported as -2.35%. `O=C1Oc2ccccc2C2(O)C3CCCCCC3C12` (stereo not shown) was tested, and the “hERG current change (%, negative = inhibition) at 10uM” value was -5.02%. `S=c1[nH]nc(Cc2sc(-c3ccccc3)nc2-c2ccccc2)o1` was tested, and the “hERG current change (%, negative = inhibition) at 10uM” value was 21.6%. For `CCOC(=O)C1CCCN(CCC(=O)Nc2ccc(Br)cc2)C1.Cl` (stereo not shown), the “hERG current change (%, negative = inhibition) at 10uM” value was -66.7%. With `COc1ccc(Cl)cc1S(=O)(=O)NC(C)C(=O)NCc1ccccn1` (stereo not shown) the “hERG current change (%, negative = inhibition) at 10uM” value was 11.4%. For `COc1cccc(C(=O)NCCSc2ccc(Br)cc2)c1`, the “hERG current change (%, negative = inhibition) at 10uM” value was -45.6%. `CC(C)CNC(=O)CSc1nnc(-c2cccc(S(=O)(=O)N3CCCCC3)c2)o1` was tested, and the “hERG current change (%, negative = inhibition) at 10uM” value was 4.34%. For `O=C(Nc1ccc(N2CCCC2)cc1)c1cc2ccccc2o1`, the “hERG current change (%, negative = inhibition) at 10uM” value was 20.4%. In the case of `CCN1C=C(Cc2ccc(F)cc2)C2=C(C1)C(c1ccc(F)cc1)C(C#N)=C(N)O2` (stereo not shown), the “hERG current change (%, negative = inhibition) at 10uM” value is reported as -4.99%. In the case of `O=C(O)/C(=C\C(=O)c1ccccc1)Nc1ccccc1`, the “hERG current change (%, negative = inhibition) at 10uM” value is reported as 10.8%. `Cc1ccc2nc(NC(=O)CSCC(=O)OCC(=O)c3ccc(Br)cc3)sc2c1` was tested, and the “hERG current change (%, negative = inhibition) at 10uM” value was 16.5%. `O=C(CN1C(=O)CCSc2ccc(S(=O)(=O)N3CCOCC3)cc21)Nc1cccc(F)c1` was tested, and the “hERG current change (%, negative = inhibition) at 10uM” value was 0.473%. In the case of `NC(=O)c1c(NC(=O)Cn2cc([N+](=O)[O-])cn2)sc2c1CCCC2`, the “hERG current change (%, negative = inhibition) at 10uM” value is reported as 5.04%. With `CN(C)N=Nc1nc2c(c(=O)n(C)c(=O)n2C)n1C` the “hERG current change (%, negative = inhibition) at 10uM” value was 11.1%. `COc1ccc(S(=O)(=O)NCCOc2ccccc2)cc1F` was tested, and the “hERG current change (%, negative = inhibition) at 10uM” value was 8.52%.
